# The whole screen tested about 150,000 compounds, of which about 540 (0.36%) showed an effect of 50% or more. This is one part of the list.
# System: Plasmodium falciparum
# Assay: Primary screen in NF54 nanoGlo assay, in single point, at 2uM, 72h; a lower Z score goes with more inhibition
# Format: functional, Erythrocyte
# Details: timepoint 72 hour
SMILES,% Inhibition,Z score
CCN1C(=O)COc2ccc(NC(=O)NCC[C@@H]3C[C@@H]4C=C[C@H]3C4)cc21,0%,-0.03
CCO[C@@H](C)C(=O)N1CCc2[nH]nc(C3CC3)c2C1,-13%,1.69
Cc1ccc(N(C)C(C)C)c(C(=O)N(C)Cc2cnn(C)c2)c1,3%,-0.41
CCc1ccc(CNCc2cnc3n2CCCC3)o1,-8%,0.85
CC(C)n1cccc1C(=O)NCc1noc(C(N)=O)n1,-2%,0.25
CC1(c2nccc(NC(=O)[C@H]3CCO[C@@H]3c3ccccc3)n2)CC1,-9%,0.88
O=C(Cc1ccc(Cl)cc1)Nc1ccc(S(=O)(=O)Nc2ccccc2)cc1,-7%,0.71
CC(C)Cc1cc(C(=O)N2C[C@@H](F)C[C@H]2CNC(=O)N2CCCC2)on1,2%,-0.34
CC(C)n1nc(CC(N)=O)nc1-c1ccc(S(C)(=O)=O)cc1,2%,-0.36
Cc1cc(CN(C)CC2(O)CCOCC2)ccc1N1CCCCC1,-3%,0.35
O=S(=O)(c1ccc2c(c1)CCCC2)N1CC(n2nccn2)C1,2%,-0.24
COc1ccc(CN2C[C@H]3CC[C@@H](C2)N(C(=O)c2nn(C)cc2Cl)C3)cc1,-9%,1.27
Cc1nc(-c2ccncc2C(=O)N2CCN(Cc3ccccc3)CC2)no1,-12%,1.14
CN(C)S(=O)(=O)CC1CCOCC1,15%,-1.73
CN1CCCC1C1CCCN1C(=O)C1CCCN(c2nccs2)C1 (stereo unspecified),-12%,1.25
CCCn1nc(-n2cnnc2)c(NS(=O)(=O)c2ccc(OC)c(OC)c2)c1C,35%,-4.7
CN(CCN1CCCCC1=O)Cc1cnc(-c2ccc(Cl)cc2)nc1,-5%,0.97
Cn1cc(C(NCC(O)C(F)(F)F)C2(CO)CCC2)cn1 (stereo unspecified),1%,-0.25
O=C(NC[C@H]1CCCS1(=O)=O)Nc1ccccc1Oc1cc(F)cc(F)c1,4%,-0.58
C=CCn1c(=O)[nH]c2c(-c3ccccn3)nsc2c1=O,-4%,0.53
O=C(Nc1nncs1)C1CCN(S(=O)(=O)c2ccc3c(c2)CCC3)CC1,-7%,1.03
c1ccc(COCCCc2nc(Cn3ccnn3)no2)cc1,-9%,1.62
CCCN(C)C(=O)c1ccc(-c2ccc3c(c2)OCO3)s1,-16%,1.54
CC(CC(=O)NCC(O)c1ccccc1)NC(=O)C1CCCC1 (stereo unspecified),-7%,1.3
COC[C@H]1C[C@@H](O)CN1C(=O)NCc1ccc(NC(C)=O)cc1,1%,-0.2
Cn1nc(NC(=O)c2ccccc2)c2c1CCN(C(=O)C1CCOCC1)C2,-18%,1.57
O=C(NCc1ccccn1)[C@@H]1CC=CCC1,-11%,1.29

SMILES,% Inhibition,Z score
COc1ccc(-n2ncc(Oc3cccc(C)c3)c(Nc3cccc(C(=O)NCc4ccncc4)c3)c2=O)cc1,13%,-1.82
CC(C)Oc1cc(CNc2cc(-n3cccn3)nc(N)n2)ccn1,-18%,1.94
CC(C)(C)n1ncc2c1NC(=O)C[C@@H]2c1c(F)cccc1F,27%,-3.08
Cc1nonc1CNC(=O)c1cccc(CN2CCCCCC2)c1,-1%,0.17
COc1cccc(NC(=O)Nc2ccc3c(c2)N(S(C)(=O)=O)CC3)c1,-3%,0.54
Cc1ncc(CO)c(CN2CC[C@@](O)(c3ccccc3)[C@H]3CCCC[C@@H]32)c1O,-1%,0.08
Cc1cc(S(=O)(=O)N(C)CCn2cccn2)c(C)s1,2%,-0.23
COc1ccc(/C=C/CN2CCCN([C@H]3COC[C@@H]3O)CC2)cc1,-17%,3.47
C=CCNC(=O)N1CCc2nc(N3CCC(C)CC3)nc(Oc3ccccc3OC)c2C1,-14%,1.46
O=C(NCc1ccc(C(=O)O)o1)c1ccc2cccc(Cl)c2n1,-24%,2.57
C[C@@H](Cc1ccsc1)N(C)c1ncc(S(N)(=O)=O)s1,-17%,1.77
Cc1ccc(-c2cc(C(=O)N3CCN(c4ccc(Cl)cc4)CC3)c(C)[nH]2)cc1,-14%,1.8
CCOC(=O)Cc1csc(NC(=O)CCc2c[nH]c3ccccc23)n1,-18%,2.77
CO[C@@H](CNC(=O)N(C)Cc1nnc[nH]1)c1ccccc1,-12%,1.18
O=C(c1csc(S(=O)(=O)N[C@H]2CCCc3ccccc32)c1)N1CCCC1,-14%,1.45
O=C(NCc1ccccc1C(F)(F)F)[C@H]1CCCN(c2ncnc3c2oc2ccccc23)C1,-14%,1.75
Cc1ccc2c(C(=O)N3CC4(CCOCC4)C3)csc2c1,-1%,0.19
COCc1noc(-c2ccc3ncccc3c2)n1,12%,-1.71
CC(C)N(C)CC1CCN(C(=O)[C@@H](C(=O)O)C2CCCC2)CC1,-14%,1.84
NC(=O)NCCN1CCc2onc(C(c3ccccc3)c3ccccc3)c2C1,12%,-1.43
Cc1cc(N2CCCN(c3ccc(C#N)cc3)CC2)nc(N)n1,-3%,0.23
COc1ccc(N2CCN(CC3=Nc4ccccc4S(=O)(=O)N3)CC2)cc1,-10%,1.49
Cc1cnc(CCNC(=O)NC(C)C)n1C1CCCCCCC1,-5%,0.77
COc1ccccc1C(=O)NC1=NN2C(=NC(c3ccc(Cl)cc3)=C[C@H]2c2ccccc2)N1,-8%,0.83
CN(C)C(=O)O[C@H]1CCN(C(=O)Cc2ccn(CC(F)(F)F)n2)C1,-8%,0.99
O=C1NCCOCCCN(S(=O)(=O)c2cccc3nsnc23)[C@H]2CCC[C@@H]12,-6%,0.83

# Source: ChEMBL document CHEMBL4888484, “Replenishing the malaria drug discovery pipeline: Screening and hit evaluation of the MMV Hit Generation Library 1 (HGL1) against asexual blood stage Plasmodium falciparum ,using a nano luciferase reporter read-out” (2022)
